Laboratory results from paper PMC2185562 (The Journal of Cell Biology, 2000).

Assays:
[1] = biological target: VSV G-tagged wild-type ezrin (UniProt P15311 1-586); assay: far-Western, overlay or dot blot
[2] = biological target: VSV G-tagged T567A ezrin (UniProt P15311 1-586, T567A); assay: far-Western, overlay or dot blot

B1: Recombinant NH2-terminal fragment […] of ezrin, biotinylated (domain or fragment)
chain: not shown
[1]
  binding result: binds
[2]
  binding result: binds
